{
  "source": "PubChem BioAssay AID1347165",
  "about": "(National Center for Advancing Translational Sciences (NCATS), 2019)",
  "note": "About 5,700 (2.6%) of roughly 220,000 compounds were called active. The inconclusive results got no clear call from the source; some entries with a clear call stand among them for comparison. Calls follow the shape of the dose curve; as a rule, active = well fitted inhibition curve with a large enough effect; inconclusive = small, poorly fitted or top-dose-only effect; inactive = no such curve, though single readings can be large or run the other way. Potencies beside an inconclusive call are fits to weak or partial responses and may not hold up. Potency is read from the fitted curve at half-maximal effect; tags tell the direction and shape of the fitted curve.",
  "data": [
    {"target": "Lysine-specific demethylase 5B (Homo sapiens) (UniProt Q9UGL1)", "sequence (Q9UGL1 whole entry, looked up)": "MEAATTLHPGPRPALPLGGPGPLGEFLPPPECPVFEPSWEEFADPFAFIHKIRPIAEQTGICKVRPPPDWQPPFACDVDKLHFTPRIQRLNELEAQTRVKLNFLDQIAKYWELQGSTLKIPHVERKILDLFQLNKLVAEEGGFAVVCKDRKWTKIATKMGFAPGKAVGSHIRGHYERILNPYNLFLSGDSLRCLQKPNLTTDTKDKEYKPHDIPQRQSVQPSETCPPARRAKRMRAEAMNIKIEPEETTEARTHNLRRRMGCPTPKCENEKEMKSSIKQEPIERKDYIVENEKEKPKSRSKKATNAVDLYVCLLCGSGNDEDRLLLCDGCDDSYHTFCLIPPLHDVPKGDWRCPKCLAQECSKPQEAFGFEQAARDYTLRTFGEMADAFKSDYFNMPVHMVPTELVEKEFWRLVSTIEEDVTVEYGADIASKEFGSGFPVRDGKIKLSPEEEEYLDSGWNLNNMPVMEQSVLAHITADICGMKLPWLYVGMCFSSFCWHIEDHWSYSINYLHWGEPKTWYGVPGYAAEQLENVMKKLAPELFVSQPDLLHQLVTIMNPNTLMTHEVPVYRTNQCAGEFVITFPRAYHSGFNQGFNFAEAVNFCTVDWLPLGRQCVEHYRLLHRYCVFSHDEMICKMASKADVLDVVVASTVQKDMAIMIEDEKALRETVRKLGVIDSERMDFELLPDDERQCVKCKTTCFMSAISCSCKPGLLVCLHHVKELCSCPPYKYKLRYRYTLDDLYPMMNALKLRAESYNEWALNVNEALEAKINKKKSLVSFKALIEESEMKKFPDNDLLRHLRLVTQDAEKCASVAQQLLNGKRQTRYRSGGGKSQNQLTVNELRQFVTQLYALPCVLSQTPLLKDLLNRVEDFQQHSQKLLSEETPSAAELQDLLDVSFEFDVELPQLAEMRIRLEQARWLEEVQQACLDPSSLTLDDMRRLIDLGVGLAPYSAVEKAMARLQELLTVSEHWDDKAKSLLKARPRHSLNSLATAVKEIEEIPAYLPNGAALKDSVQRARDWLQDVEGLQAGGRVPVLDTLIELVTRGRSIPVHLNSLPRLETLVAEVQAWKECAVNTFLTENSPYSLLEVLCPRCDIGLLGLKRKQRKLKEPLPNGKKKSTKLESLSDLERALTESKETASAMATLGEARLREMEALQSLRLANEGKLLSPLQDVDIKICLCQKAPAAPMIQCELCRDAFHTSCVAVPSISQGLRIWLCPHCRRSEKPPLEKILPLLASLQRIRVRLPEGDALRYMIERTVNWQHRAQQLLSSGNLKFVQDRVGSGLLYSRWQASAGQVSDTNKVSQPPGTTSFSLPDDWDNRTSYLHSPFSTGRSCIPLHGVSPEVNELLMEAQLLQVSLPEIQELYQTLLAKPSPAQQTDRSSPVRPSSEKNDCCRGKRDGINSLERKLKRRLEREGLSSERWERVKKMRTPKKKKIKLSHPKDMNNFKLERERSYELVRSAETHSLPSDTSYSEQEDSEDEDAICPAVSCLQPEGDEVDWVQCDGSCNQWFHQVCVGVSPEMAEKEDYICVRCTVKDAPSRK", "test": "Primary screen for KDM5B Histone Demethylases FDH-coupled qHTS; also: nearly all actives have a fitted effect of over 70% in size; as to activity change, negative = inhibition: 0% is about no effect", "details": "FDH-coupled NADH fluorescence (FDH is formaldehyde dehydrogenase); activity change, negative = inhibition: at 57.7 µM (top of the series) unless noted", "procedure,_shortened": "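Compound dilutions met 200 nM (final) KDM5BΔAP for 10 min at room temperature before substrate addition. The substrate mix held 12.5 µM H3K4me3 with cofactors 25 µM α-ketoglutarate and 50 µM Fe²⁺. NADH signal gain over 30 min defined activity.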", "values": [
      {"smiles": "COc1ccc(-c2nc(CNS(=O)(=O)c3ccc(F)cc3)cs2)cc1", "Potency": "inconclusive: 28.2 µM [inhibitor, partial curve, poor fit]"},
      {"smiles": "Cc1ccc(C)c(N2CCN(C(=O)c3c4c(nc5ccccc35)C(=O)N(C3CCCCC3)C4)CC2)c1", "activity change, negative = inhibition": "inconclusive: -32.6% [inhibitor]"},
      {"smiles": "CCOc1ccc(C(=O)N2CCC3(CC2)CN(C2CCC2)CC3COC)cc1", "note": "(stereo unspecified)", "Potency": "inconclusive: 15.8 µM [inhibitor, partial curve]"},
      {"smiles": "Cc1ccc(-n2nc(C)c(C(=O)N3CCc4ccccc4C3)c2-n2cccc2)cc1", "activity change, negative = inhibition": "inactive: -1.18%"},
      {"smiles": "CCOc1ccccc1CN1CCC2(CCN(C(=O)COC)CC2)Oc2ccccc21", "Potency": "inconclusive: 11.2 µM [inhibitor, partial curve]"},
      {"smiles": "CCOc1ccc(-c2cc(C(F)(F)F)c(C#N)c(SCC(=O)Nc3ccccc3)n2)cc1", "Potency": "inconclusive: 17.8 µM [inhibitor, partial curve, poor fit]"},
      {"smiles": "CN(Cc1ccc(N2CCNC2=O)cc1)CC1CCCN(CCc2ccc(F)cc2)C1", "note": "(stereo unspecified)", "Potency": "inconclusive: 20 µM [inhibitor, partial curve, poor fit]"},
      {"smiles": "CC(=O)c1cc(-c2ccccc2)n(CCC(=O)Nc2cc(C)cc(C)c2)c1C", "Potency": "inconclusive: 2.51 µM [inhibitor, partial curve, poor fit]"},
      {"smiles": "CC(CNC(=O)c1nn(C)c(=O)c2ccccc12)c1ccccc1", "note": "(stereo unspecified)", "activity change, negative = inhibition": "inactive: 14.3%"},
      {"smiles": "CC[C@@]1(C(=O)O)C[C@H](C(=O)NCc2cccnc2)[C@H](c2ccc(F)cc2)N1C", "Potency": "inconclusive: 12.6 µM [inhibitor, partial curve]"},
      {"smiles": "CCOC(=O)C1=C(C)NC(=O)C1(NC(=O)c1ccco1)C(F)(F)F", "note": "(stereo unspecified)", "activity change, negative = inhibition": "inactive: -2.44%"},
      {"smiles": "Cc1csc2c(=O)sc(NC(=O)c3cccs3)nc12", "Potency": "inconclusive: 20 µM [inhibitor, partial curve, poor fit]"},
      {"smiles": "CN(C)c1ccc(CN2CCC3(COc4ccccc4C(=O)N3)C2)cc1", "note": "(stereo unspecified)", "Potency": "inconclusive: 31.6 µM [inhibitor, partial curve, poor fit]"},
      {"smiles": "Cn1c2c(c3cc(F)ccc31)CN(C(=O)Nc1ccccc1)CC2", "Potency": "inconclusive: 25.1 µM [inhibitor, partial curve, poor fit]"},
      {"smiles": "Cn1c(C(=O)NCc2cccc(F)c2)cc2cc(S(=O)(=O)N3CCCCC3)ccc21", "Potency": "inconclusive: 39.8 µM [inhibitor, single point]"},
      {"smiles": "COc1ccc(C)nc1-c1cnc2ccccc2c1", "Potency": "inconclusive: 17.8 µM [inhibitor, partial curve, poor fit]"},
      {"smiles": "Cc1ccccc1C(=O)Nc1cccc(C(=O)N/N=C/c2ccccn2)c1", "Potency": "inconclusive: 22.4 µM [inhibitor, single point]"},
      {"smiles": "C=CCOC/C=C/C#CCN(CC=C)Cc1ccc(OC)cc1OC", "activity change, negative = inhibition": "inactive: 14.3%"},
      {"smiles": "COc1ccc(-c2nonc2NC(=O)c2ccc(OCC(C)C)cc2)cc1OC", "activity change, negative = inhibition": "inactive: 17.2%"},
      {"smiles": "CN(C)C[C@@H]1CN(Cc2ccccn2)C[C@H]1NS(=O)(=O)c1ccccc1F", "Potency": "inconclusive: 25.1 µM [inhibitor, single point]"},
      {"smiles": "O=C(c1cc(F)ccc1F)N1CCC2(CC1)N=C(c1ccc(Cl)cc1)NO2", "Potency": "active: 22.4 µM"},
      {"smiles": "COc1ccc2cc(C(=O)N3CCC4(CC3)CC(O)CCO4)[nH]c2c1", "note": "(stereo unspecified)", "Potency": "inconclusive: 28.2 µM [inhibitor, single point]"},
      {"smiles": "O=c1c2c(CO)c(-c3ccc(F)cc3)nn2ccn1Cc1ccccc1F", "activity change, negative = inhibition": "inactive: -5.48%"},
      {"smiles": "N#CC1=C(n2cccc2)N(c2ccc(Br)cn2)C2=C(C(=O)CCC2)C1c1cccc(C(F)(F)F)c1", "note": "(stereo unspecified)", "activity change, negative = inhibition": "inactive: 15.5%"},
      {"smiles": "CC(C)C(=O)N1Cc2ccccc2CC2(CCCN(Cc3cccnc3)C2)C1", "note": "(stereo unspecified)", "activity change, negative = inhibition": "inactive: 22.5% [at 115 µM]"},
      {"smiles": "CC1Oc2ccc(NC(=O)c3ccc(F)cc3F)cc2CN(Cc2ccccc2Cl)C1=O", "note": "(stereo unspecified)", "Potency": "inconclusive: 39.8 µM [inhibitor, single point]"},
      {"smiles": "CCCCCCC(O)(c1ccccc1)C(CN1CCOCC1)c1ccccc1", "note": "(stereo unspecified)", "Potency": "inconclusive: 25.1 µM [inhibitor, partial curve, poor fit]"},
      {"smiles": "Fc1ccccc1-c1cc2c(ccn2Cc2ccncc2)c(N2CCOCC2)n1", "Potency": "active: 28.2 µM"},
      {"smiles": "COC(=O)[C@H](C(C)C)N1Cc2nnn(Cc3ccccc3)c2-c2cc(F)ccc2S1(=O)=O", "activity change, negative = inhibition": "inactive: -5.98%"},
      {"smiles": "CNC(=O)NC[C@H]1CCN(Cc2scnc2C)C[C@H]1N(C)C", "Potency": "inconclusive: 31.6 µM [inhibitor, partial curve, poor fit]"},
      {"smiles": "Cc1ccc(-c2nc3c(cnn3-c3ccccc3)c(=O)n2-c2ccc(Cl)cc2)cc1", "Potency": "inconclusive: 35.5 µM [inhibitor, partial curve, poor fit]"},
      {"smiles": "COc1cccc(OC)c1C(=O)Nc1ccc2c(c1)CCCN2S(=O)(=O)c1ccc(C)cc1", "activity change, negative = inhibition": "inconclusive: -41.3% [inhibitor]"},
      {"smiles": "CCOc1cc(CNCc2ccco2)ccc1OCc1ccccc1", "activity change, negative = inhibition": "inactive: -5.46%"},
      {"smiles": "CN1CC2(CCN(Cc3ccc(C#N)cc3)CC2)CC(c2ccccc2)C1=O", "note": "(stereo unspecified)", "Potency": "inconclusive: 22.4 µM [inhibitor, single point]"},
      {"smiles": "O=C(NCC1CN(C(=O)c2cccc(O)c2)CC12CN(c1ccccc1)C2)Nc1ccccc1", "note": "(stereo unspecified)", "activity change, negative = inhibition": "inactive: 4.74%"},
      {"smiles": "O=C(NCCc1ccc(Cl)cc1)C1COc2ccccc2O1", "note": "(stereo unspecified)", "Potency": "inconclusive: 39.8 µM [inhibitor, partial curve, poor fit]"},
      {"smiles": "Cn1ccc(NC(=O)C2(C)COCc3cnc(Nc4ccccc4)nc32)n1", "note": "(stereo unspecified)", "activity change, negative = inhibition": "inactive: -12% [at 86.2 µM]"},
      {"smiles": "COc1cccc(/C=N/NC(=S)NCCc2ccccc2)c1OC", "Potency": "inconclusive: 39.8 µM [inhibitor, single point]"},
      {"smiles": "COc1ccc(OC)c([S+](=O)([O-])c2nnn3c2nc(NCc2ccncc2)c2ccccc23)c1", "Potency": "inconclusive: 79.4 µM [inhibitor, single point]"},
      {"smiles": "CCOC(=O)c1c(C)[nH]c(C)c1S(=O)(=O)N(C)CC(=O)N1CCN(c2ccccc2OC)CC1", "Potency": "inconclusive: 1.78 µM [inhibitor, full curve, poor fit]"},
      {"smiles": "COCC1CN(C)CC12CCN(C(=O)C1CC=CC1)CC2", "note": "(stereo unspecified)", "Potency": "inconclusive: 28.2 µM [inhibitor, partial curve, poor fit]"},
      {"smiles": "CCOC(=O)c1c(C)oc2c(Cl)cc(NS(=O)(=O)c3ccc(Cl)c(C)c3)cc12", "activity change, negative = inhibition": "inactive: -19.2%"},
      {"smiles": "Cc1cc(N/N=C/c2cccc(Cl)c2)nc(-n2nc(C)cc2C)n1", "Potency": "inconclusive: 35.5 µM [inhibitor, single point]"},
      {"smiles": "COc1ccccc1N1CCN(C(=O)C[C@@H]2O[C@H](CNS(=O)(=O)c3ccc(Cl)cc3)[C@@H](O)[C@H]2O)CC1", "Potency": "inconclusive: 22.4 µM [inhibitor, single point]"},
      {"smiles": "CCN1CCN(C(=O)c2ccc3c(c2)N(Cc2cc(C)ccc2C)C(=O)c2ccccc2S3=O)CC1", "note": "(stereo unspecified)", "Potency": "inconclusive: 15.8 µM [inhibitor, partial curve, poor fit]"},
      {"smiles": "Cc1ccc(-c2ccc3nnc(CNC(=O)CCC4CCCC4)n3n2)cc1", "Potency": "active: 28.2 µM"},
      {"smiles": "COc1ccc(C(C[N+](=O)[O-])c2c(C)[nH]n(-c3ccccc3)c2=O)cc1", "note": "(stereo unspecified)", "Potency": "inconclusive: 1.78 µM [inhibitor, full curve, poor fit]"},
      {"smiles": "O=C(Nc1ccc(-c2noc(-c3ccc(Cl)cc3)n2)cc1)c1ccco1", "activity change, negative = inhibition": "inactive: -12.6%"},
      {"smiles": "COc1cc(OC)cc(C2Nc3ccccc3C(=O)N2C2CC2)c1", "note": "(stereo unspecified)", "Potency": "inconclusive: 25.1 µM [inhibitor, partial curve, poor fit]"},
      {"smiles": "O=C(CCC1CCN(Cc2ncc[nH]2)CC1)NC1CCN(Cc2ccccc2)C1", "note": "(stereo unspecified)", "activity change, negative = inhibition": "inactive: 1.95%"},
      {"smiles": "COC(=O)c1sc(-c2ccc(C(C)(C)C)cc2)cc1NC(=O)CCC(=O)O", "Potency": "inconclusive: 31.6 µM [inhibitor, partial curve, poor fit]"},
      {"smiles": "CCC(C)N1CCN(C(=O)c2cccc(Cl)c2)CC1", "note": "(stereo unspecified)", "Potency": "inconclusive: 39.8 µM [inhibitor, single point]"},
      {"smiles": "CC(=O)N1CCC(C(=O)Nc2ccc(Cl)cc2)CC1", "activity change, negative = inhibition": "inactive: 12.3%"},
      {"smiles": "CCC(CC)C(=O)Nc1ccccc1C(=O)OCc1cc(=O)n2nc(C3CCCCC3)sc2n1", "Potency": "inconclusive: 2 µM [inhibitor, full curve, poor fit]"},
      {"smiles": "COc1ccc(Cl)cc1N(C)C(=O)Cn1cnc2sc(C)c(S(=O)(=O)N3CCN(c4ncccn4)CC3)c2c1=O", "Potency": "inconclusive: 1.58 µM [inhibitor, full curve, poor fit]"},
      {"smiles": "Cc1ccc(C)c(CN2C(=O)c3ccccc3S(=O)(=O)c3ccc(C(=O)N4CCOCC4)cc32)c1", "Potency": "inconclusive: 2.51 µM [inhibitor, partial curve, poor fit]"},
      {"smiles": "COc1ccccc1OCC(=O)c1c(C)[nH]c2ccccc12", "activity change, negative = inhibition": "inactive: 8.23%"},
      {"smiles": "CCOc1ccc(N=Nc2ccc(O)c3ncccc23)cc1", "Potency": "inconclusive: 39.8 µM [inhibitor, single point]"},
      {"smiles": "CCc1ccc(CNC(=O)c2noc(-c3ccc4c(c3)OCO4)n2)cc1", "Potency": "inconclusive: 22.4 µM [inhibitor, single point]"},
      {"smiles": "CN(Cc1nc2ccsc2c(=O)[nH]1)C(=O)COc1cccc(F)c1", "Potency": "inconclusive: 39.8 µM [inhibitor, partial curve, poor fit]"},
      {"smiles": "O=C(c1ccc2c(c1)OCO2)N1CCC2(C1)C(=O)N(c1ccccc1)c1ccccc12", "note": "(stereo unspecified)", "activity change, negative = inhibition": "inactive: 20.5% [at 115 µM]"},
      {"smiles": "O=C(/C=C/c1c(F)cccc1Cl)Nc1ccc(S(=O)(=O)Nc2ncccn2)cc1", "Potency": "inconclusive: 25.1 µM [inhibitor, single point]"},
      {"smiles": "COc1ccc(-c2noc(-c3ccc(N4CCCOCC4)nc3)n2)cc1", "Potency": "active: 31.6 µM"},
      {"smiles": "Cc1nc2scc(CC(=O)NCCC(C)C)n2c(=O)c1-c1cc(C)n(-c2ccc(F)cc2)n1", "Potency": "active: 28.2 µM"},
      {"smiles": "COc1ccccc1/C=C/c1nc(C#N)c(N(C)Cc2ccccc2)o1", "activity change, negative = inhibition": "inactive: -148%"},
      {"smiles": "O=C(Cc1ccsc1)NCc1ccccc1", "activity change, negative = inhibition": "inactive: 33.7%"}
    ]}
  ]
}
